For some of these results: What follows is the remainder of the data, with few or none of the strong results. The list shows a part of the results, in another mix than the full data.
Legend:
Settings in all cases: concentration: 1 μM,replicates: in singlicate; n = 1
[1] = tested on: T1, RSK3(Kin.Dom.1-N-terminal)
T1 construct: gene RPS6KA2

[2] = tested on: T2, RSK3(Kin.Dom.2-C-terminal)
T2 construct: gene RPS6KA2

[3] = tested on: T3, RSK4(Kin.Dom.1-N-terminal)
T3 construct: gene RPS6KA6

[4] = tested on: T4, RSK4(Kin.Dom.2-C-terminal)
T4 construct: gene RPS6KA6

[5] = tested on: S6K1
[6] = tested on: SBK1
[7] = tested on: SGK2
[8] = tested on: SGK3
[9] = tested on: SGK
[10] = tested on: SIK2
[11] = tested on: SIK
[12] = tested on: SLK
[13] = tested on: T5, SNARK
T5 construct: gene NUAK2

[14] = tested on: SNRK
[15] = tested on: SRC
[16] = tested on: SRMS
[17] = tested on: SRPK1
[18] = tested on: SRPK2
[19] = tested on: SRPK3
[20] = tested on: STK16
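Note: KINOMEscan kinase panel screen.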

SMILES	%Inh [1] [%]	%Inh [2] [%]	%Inh [3] [%]	%Inh [4] [%]	%Inh [5] [%]	%Inh [6] [%]	%Inh [7] [%]	%Inh [8] [%]	%Inh [9] [%]	%Inh [10] [%]	%Inh [11] [%]	%Inh [12] [%]	%Inh [13] [%]	%Inh [14] [%]	%Inh [15] [%]	%Inh [16] [%]	%Inh [17] [%]	%Inh [18] [%]	%Inh [19] [%]	%Inh [20] [%]
O=C1NC(=O)c2c1c(-c1ccccc1)cc1[nH]c3ccc(O)cc3c21	97.6	10	98.4	19	49	25	27	72	59	50	34	96.6	90.1	15	0	30	0	13	68	0
O=C(O)c1ccc(-c2nc(-c3ccc(F)cc3)c(-c3ccncc3)[nH]2)cc1 [SB-202620]	8	31	29	93.9	3	14	0	0	6	39	20	12	0	2	18	33	14	0	21	0
COc1ccc(C2=C(Nc3cccc(Cl)c3)C(=O)NC2=O)cc1 [SB-326892]	13	0	13	7	0	0	0	9	0	0	11	84	8	0	0	0	21	0	21	0
O=C1NC(=O)C(c2ccc(Cl)cc2)=C1Nc1ccccc1 [SB-317661]	0	0	15	0	26	23	26	19	20	0	0	0	6	0	0	31	0	0	0	0
COc1cccc(C2=C(Nc3ccc(SC)cc3)C(=O)NC2=O)c1 [SB-331032]	0	35	34	9	0	60	18	13	20	8	0	78	37	0	0	18	10	0	0	0
O=C1NC(=O)C(c2ccc(Cl)cc2)=C1Nc1cccc(O)c1 [SB-333613]	2	11	31	17	16	35	0	20	26	6	0	21	25	4	13	10	3	0	15	3
O=C1NC(=O)C(c2ccc(Cl)cc2)=C1Nc1cccc(C(=O)O)c1 [SB-360737]	0	0	0	0	18	0	6	3	0	0	0	11	0	0	0	0	12	0	0	11
CS(=O)(=O)c1ccccc1-c1nc(-c2ccc(F)cc2)c(-c2ccncc2)[nH]1 [SB-213663]	5	28	0	63	0	0	5	0	5	0	4	0	0	7	13	0	0	32	9	8
O=C1NC(=O)C(c2ccccc2Cl)=C1Nc1ccccc1 [SB-376715]	10	0	34	23	0	0	0	3	0	0	9	51	13	0	1	4	17	14	0	0
O=C1NC(=O)C(c2ccc(Cl)cc2)=C1Nc1ccc(O)c(Cl)c1 [SB-405367]	4	2	9	0	31	27	11	15	7	0	24	55	25	6	9	18	28	0	0	2
CSc1ccc(NC2=C(c3cccc(Cl)c3)C(=O)NC2=O)cc1 [SB-341528]	0	0	13	1	26	2	21	8	12	0	0	31	8	5	4	5	4	0	0	0
Cc1cc(C)cc(Oc2nccc(-c3c(-c4ccc(F)cc4)ncn3C3CCNCC3)n2)c1.O=C(O)C(F)(F)F.O=C(O)C(F)(F)F.O=C(O)C(F)(F)F [SB-284851]	0	4	0	0	0	0	0	0	0	13	19	17	0	0	6	5	3	76	25	16
O=C1NC(=O)C(c2ccccc2Cl)=C1Nc1cccc(C(=O)O)c1 [SB-390526]	4	0	0	4	0	34	0	0	0	2	0	40	9	0	0	2	26	28	24	0
Cc1ccc(C)c(Oc2nccc(-c3c(-c4ccc(F)cc4)ncn3C3CCNCC3)n2)c1.O=C(O)C(F)(F)F.O=C(O)C(F)(F)F.O=C(O)C(F)(F)F [SB-284852]	18	6	0	0	0	0	7		0	0	34	17	0	0	4	0	0	22	10	0
O=C1NC(=O)C(c2ccccc2)=C1Nc1cc(Cl)c(O)c(Cl)c1 [SB-390530]	14	0	10	0	14	0	0	34	0	9	2	30	46	2	0	0	12	2	26	20
O=C1NC(=O)C(c2ccccc2)=C1Nc1ccc(Cl)c(C(=O)O)c1 [SB-390532]	5	0	0	0	15	0	5	1	12	0	0	0	0	0	0	0	23	24	0	9
